From ChEMBL document CHEMBL4888484, “Replenishing the malaria drug discovery pipeline: Screening and hit evaluation of the MMV Hit Generation Library 1 (HGL1) against asexual blood stage Plasmodium falciparum ,using a nano luciferase reporter read-out” (2022)
About 540 (0.36%) of roughly 150,000 compounds showed an effect of 50% or more. This is one part of the list.

Each compound was assayed on Plasmodium falciparum (assay: Primary screen in NF54 nanoGlo assay, in single point, at 2uM, 72h; a lower Z score goes with more inhibition). Settings: timepoint 72 hour.
Type: functional, Erythrocyte

Row | SMILES | % Inhibition [%] | Z score
1 | CNc1nc(-c2cc(C(=O)C(Cl)(Cl)Cl)n(C)c2)cs1 | -3 | 0.53
2 | O=C(Nc1nc2c(s1)CCC2)c1ccc(Nc2ncccn2)cc1 | 6 | -0.81
3 | COc1ccccc1C1CN(CC(=O)NC(CCn2ccnc2)c2ccccc2)Cc2ccccc2O1 (stereo not drawn) | 15 | -1.94
4 | C[C@@H]1Oc2ccc(NC(=O)CCc3ncc(-c4ccc(Cl)cc4Cl)o3)cc2NC1=O | 9 | -1.48
5 | COC1CN(C(=O)OC(C)(C)C)CC1NC(=O)c1ccc(F)cc1Cl (stereo not drawn) | 1 | -0.16
6 | CCOc1ccc(CN2CCN(C(=O)c3ccc(C)nc3)CC2)cn1 | 13 | -1.61
7 | Cc1cc(C)n2ncc(-c3noc(C(=O)NC4CCCCCC4)n3)c2n1 | -14 | 1.63
8 | COc1ncncc1NC(=O)NC1CCC(C)C1 (stereo not drawn) | -14 | 1.4
9 | COC(=O)c1ncn(CNC2(c3ccc(Cl)cc3)CCCC2)n1 | 35 | -4.76
10 | O=C1Nc2ccc(-c3ccc4c(c3)OCO4)cc2C(=O)N2C[C@@H](NS(=O)(=O)c3ccc(F)cc3)C[C@@H]12 | 29 | -3.28
11 | COc1ccc(C[C@H]2CCOC3(CCN(C(=O)c4ccc(OC)c(F)c4)CC3)C2)cc1 | -3 | 0.6
12 | CCOc1ccccc1CNC(=O)c1cc(N2CCc3cc(OC)c(OC)cc3C2)nc2ccccc12 | -2 | 0.25
13 | O=C1CCCCN1CC(=O)N1CCO[C@@H](Cc2cccc3ccccc23)C1 | -5 | 0.71
14 | CC(C)(C)CN(C(=O)[C@H]1CCCN(C(=O)C(C)(C)C)C1)c1ccc(F)cc1 | 32 | -3.66
15 | Cc1cc(CS(=O)(=O)c2ccccc2Br)on1 | -4 | 0.76
16 | O=c1[nH]c(Nc2ccccc2)nc2nccc(-c3ccc(Br)cc3)c12 | 7 | -0.94
17 | O=C1CCN(C(=O)c2cn(C(c3ccccc3)c3ccccc3)nn2)CCN1 | -3 | 0.35
18 | CCN(CCOc1c(C)cccc1C)Cc1cc(C)n[nH]1 | -10 | 1.43
19 | COc1ccc(-c2cccc(-n3cncc3C(=O)NCc3c(-c4ccccc4)noc3C)c2)cc1OC | 11 | -1.71
20 | O=C(O)C1CC2CCCCC2N1S(=O)(=O)Cc1ccccc1Cl (stereo not drawn) | 14 | -1.81
21 | CS(=O)(=O)C[C@H]1CCCN(Cc2cccnc2N)C1 | 3 | -0.4

Row | SMILES | % Inhibition [%] | Z score
22 | Cc1ccc(OCCCN(C)C(=O)C2CCNCC2)cc1C | -8 | 1.21
23 | O=C(CC[C@H]1CCCN(c2cc(NC3CC3)ncn2)C1)NCc1ccc(N2CCOCC2)cc1 | -1 | 0.23
24 | CS(=O)(=O)NCCOc1cccc(F)c1 | -10 | 1.47
25 | CC(C)COC1CCN(C(=O)CN2CCCCCC2=O)CC1 | -5 | 0.68
26 | CC(C)CN(Cc1cnc(N(C)CC(=O)O)nc1)C1CC1 | -2 | 0.3
27 | CC(=O)OCCc1sc(N)nc1C | -3 | 0.47
28 | CC[C@](C)(NS(=O)(=O)c1ccc(C#N)cc1)C(=O)OC | -45 | 5.28
29 | CCN(C(=O)c1ccc2ncoc2c1)[C@@H](C)C(F)(F)F | 1 | -0.1
30 | CCCc1nc(N2CCC(N(C)CCN(C)C)CC2)no1 | -2 | 0.24
31 | CCNC(=O)Cc1ccc(C[C@@H]2CC[C@H](CN3CCCC3)O2)cc1 | -7 | 1.4
32 | CN(C)CCn1ccc(NC(=O)N2CCC[C@@H]2Cc2ccc(F)cc2)n1 | 15 | -1.98
33 | Cc1ncncc1C(=O)N1CCC[C@H](c2nccn2Cc2ccccc2)C1 | -3 | 0.57
34 | CC(=O)N1CCC(Cn2cnc3ccccc32)CC1 | -1 | 0.07
35 | CC1=C[C@@H](CNC(=O)c2cnccn2)[C@H](C(C)C)C[C@H]1Cc1nc2ccncc2[nH]1 | 5 | -0.7
36 | Brc1c[nH]c(-c2nc(-c3cnccn3)no2)c1 | -1 | 0.25
37 | CCOC(=O)C1=CS/C(=C2/C(=S)C(C)(C)Nc3ccc(C)cc32)S1 | -19 | 2.07
38 | C=CCNC(=O)C1(NC(=O)c2cc(C)n[nH]2)CCCCC1 | -3 | 0.34
39 | COc1cc2ccc1Oc1cccc(c1)CO[C@H]1CN(C(=O)c3n[nH]c4c3CCCC4)C[C@@H]1NC(=O)CN(C1CC1)C(=O)CC2 | 2 | -0.28
40 | COCCNc1ncc(Br)c(NCCOC)n1 | -9 | 1.45
41 | Cn1cc(S(=O)(=O)N2CCCC[C@@H]2CNC(=O)Nc2ccccc2)c(=O)n(C)c1=O | 4 | -0.6
42 | O=C(Nc1ccccc1-c1cn2ccccc2n1)c1ncccn1 | 21 | -2.71

Row | SMILES | % Inhibition [%] | Z score
43 | COc1cccc(C(=O)NCC(=O)NC2(C)Cc3ccccc3C2)c1 | 25 | -2.78
44 | COCCN1[C@@H]2CCN(C(=O)CC3CCCCC3)C[C@@]2(C(=O)N2CCOCC2)CCS1(=O)=O | -17 | 2.49
45 | CCCc1nc(CNC(=O)CCn2nnnc2C)cs1 | -17 | 1.68
46 | Cc1ccc(C2(CNC(=O)Cn3ncnn3)CCCC2)c(C)c1 | -13 | 1.48
47 | CC1CN(c2ccc(NC(=O)c3ccco3)cc2)CC(C)O1 (stereo not drawn) | -2 | 0.34
48 | O=C(c1ccc(Cn2ccnc2)o1)N1C[C@H]2CNC(=O)[C@]23CCCC[C@@H]13 | -11 | 1.75
49 | O=C(NCc1cccc(=O)[nH]1)c1cc(-c2ccccc2)nc2ccccc12 | -16 | 1.63
50 | CN1CCCN(C(=O)CCc2nc3ccccc3c(=O)[nH]2)CC1 | -3 | 0.38
51 | O=C(Cn1nnc2ccccc21)N(c1ccccc1)C1CCCCC1 | -13 | 1.77
52 | CC(=O)Nc1cccc2c(C(=O)N3CCN(c4ccc(C)cc4)CC3)ccnc12 | -17 | 3.18
53 | COc1ccc(NC(=O)N2CCc3c(C(=O)NC4CC4)cccc32)cc1 | -3 | 0.35
54 | Nc1nc(NCc2ccc3c(c2)OCO3)cc(C2CC(O)C2)n1 (stereo not drawn) | -5 | 0.73
55 | COc1ccc(C2(C(=O)N3CCc4cc(OC)c(OC)cc4C3C)CCCOC2)cc1OC (stereo not drawn) | -5 | 1.02
56 | O=C(Cc1cnn(-c2ccccc2)c1)Nc1ccc2[nH]c(=O)[nH]c2c1 | 34 | -0.93
57 | CC(=O)NCC1CN(C(C)c2nc3ccccc3o2)CCO1 (stereo not drawn) | -14 | 1.9
58 | COC(C)c1nc(CN2CCCC3CCCC32)cs1 (stereo not drawn) | -5 | 0.8
59 | Cc1ccccc1C1(NS(=O)(=O)N2CCCC2)CC1 | -3 | 0.61
60 | CCN(CC)CCn1c2ccccc2n2cc(-c3ccc(OC)cc3)nc12 | -9 | 1.35
61 | COCc1nc(CN2CCO[C@H](c3ccc(Cl)cc3)C2)no1 | -2 | 0.27
62 | CN1C[C@@H](NC(=O)c2ccc(OCC3CC3)nc2)CCC1=O | 13 | -1.34
63 | CCN1CC(C(=O)N2CCCC3CCCC32)CC1=O (stereo not drawn) | -6 | 0.65

Row | SMILES | % Inhibition [%] | Z score
64 | Cc1cccc(COc2nc3cc(C)ccc3cc2CNCc2cn(C)nc2C)c1 | 7 | -1.39
65 | CCC(CC)n1nc(C)cc1C(=O)N1CCN(Cc2cccnc2)C[C@@H]1C | -2 | 0.28
66 | O=C(c1ccc2[nH]c3c(c2c1)CCCC3)N1CCCCCC1 | 3 | -0.4
67 | CC(C)N(CC1CCC1)C(=O)NCc1cccc(O)c1 | 13 | -1.79
68 | Cc1c(-c2noc(C(=O)N3CCC(C)CC3)n2)oc2c(C)cccc12 | -3 | 0.34
69 | CO[C@H]1CCCC[C@@H]1NC(=O)NC1CCC(O)(c2cccnc2)CC1 (stereo partly drawn) | -10 | 1.64
70 | CCc1ccc2occ(CC(=O)Nc3c(C(=O)c4ccccc4)oc4ccccc34)c2c1 | 7 | -0.82
71 | COC(=O)CN(Cc1ccc(F)c(F)c1)c1cc(C)ncn1 | -7 | 0.98
72 | Oc1ccc(N2CCN(Cc3noc(-c4cccs4)n3)CC2)cc1 | -4 | 0.72
73 | O=C1CC2(CCN(c3cc(C4CC4)ncn3)CC2)CN1Cc1ccccc1 | -4 | 0.51
74 | N#Cc1cccc(C(=O)N2CCc3n[nH]c(=O)n3CC2)c1 | 0 | -0.03
75 | CCOc1ccncc1S(=O)(=O)NC[C@H]1CCCN1C1CCCCC1 | 7 | -1.22
76 | Cn1nc(-c2ccc(F)cc2)cc1C(=O)Nc1ccc2c(c1)CN(S(=O)(=O)c1ccccc1)CC2 | 3 | -0.54
77 | Nc1nnc(CCNC(=O)c2ccccc2)s1 | -6 | 0.76
78 | Cc1ccc(NC(=O)Cn2c(C)cncc2=O)cc1C | -6 | 0.97
79 | O=C(Nc1ccc(Cl)c(Cl)c1)OCc1cn(-c2ccccc2)nc1-c1cccs1 | -6 | 1
80 | Nc1nc(CCC(=O)N[C@H]2CCCc3ccccc32)cs1 | -5 | 0.75
81 | CC(=Cc1ccc(C)cc1)C(=O)N[C@@H](CO)C(F)(F)F | -11 | 1.59
82 | CCC(NC(=O)c1cnc(C)nc1)[C@H]1C[C@H](O)C1 (stereo partly drawn) | -11 | 1.88
83 | O=C(CCn1ccc2ccccc21)N1CCOCC1 | -10 | 1.4
84 | Cc1[nH]nc(C(N)=O)c1NC(=O)[C@H](C)NC(=O)CC1CCCCC1 | -9 | 1.28
